In PubChem BioAssay AID360 (National Center for Advancing Translational Sciences (NCATS), 2006):
The whole screen tested about 48,000 compounds, of which about 550 (1.1%) were called active. Roughly 4% stayed inconclusive and do not appear here. Rule as the data show it: active = potency below about 15 µM; inconclusive = mostly about 16 µM to 33 µM; inactive = weaker than that. Some of the results follow.

target: Lysosomal acid glucosylceramidase (Homo sapiens) (UniProt P04062); experiment: Glucocerebrosidase; settings: purified enzyme, resorufin glucoside fluorescence (screen aimed at inhibitors), 20 min;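 also: the screen sought inhibitors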
Procedure, shortened: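 Normal human glucocerebrosidase (0.2 nM final) was assayed with resorufin β-D-glucopyranoside (30 uM final) in 50mM citric acid/KH2PO4, 10mM sodium taurocholate, 0.01% tween-20, pH 5.9. Compounds were titrated; fluorescence (Ex 548, Em 600) read after 20 min at RT.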
Potency is read from the fitted curve at half-maximal effect.

Chain of UniProt P04062 (P04062 whole entry, looked up): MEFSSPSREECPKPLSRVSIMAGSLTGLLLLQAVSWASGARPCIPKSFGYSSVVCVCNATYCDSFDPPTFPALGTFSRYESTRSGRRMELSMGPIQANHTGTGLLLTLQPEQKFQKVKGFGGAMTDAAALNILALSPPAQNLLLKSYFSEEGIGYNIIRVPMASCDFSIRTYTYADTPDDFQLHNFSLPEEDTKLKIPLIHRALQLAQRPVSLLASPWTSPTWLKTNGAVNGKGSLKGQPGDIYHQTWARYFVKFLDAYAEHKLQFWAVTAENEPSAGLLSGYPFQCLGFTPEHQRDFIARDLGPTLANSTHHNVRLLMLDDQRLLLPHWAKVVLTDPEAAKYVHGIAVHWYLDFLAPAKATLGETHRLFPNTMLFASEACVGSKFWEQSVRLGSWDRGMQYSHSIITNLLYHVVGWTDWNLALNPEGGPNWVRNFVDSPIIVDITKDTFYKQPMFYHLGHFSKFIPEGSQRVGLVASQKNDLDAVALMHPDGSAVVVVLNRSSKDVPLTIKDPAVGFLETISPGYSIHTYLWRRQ

Potency, inactive:
Cc1nnc(SCC2CCCO2)n1-c1ccccc1 (stereo not drawn) > 76.9 µM
O=C(O)C1CC(=O)N(c2ccc(F)cc2)C1 (stereo not drawn) > 76.9 µM
COC(=O)c1cc(Br)c(=O)n(-c2ccc(C(C)=O)cc2)c1 > 76.9 µM
Cc1ccc(-c2nc(N)n(S(C)(=O)=O)n2)cc1 > 76.9 µM
O=S(=O)(c1cccc(S(=O)(=O)N2CCC(Cc3ccccc3)CC2)c1)N1CCOCC1 > 76.9 µM
C=CCNc1ncnc2c1[nH]c1ccccc12
COC(=O)Nc1c(-c2ccccc2)nc2ccc(C)cn12 > 76.9 µM
Cc1[nH]c2ccccc2c1/C=N/n1cnnc1 > 76.9 µM
CCCS(=O)(=O)N1CCCC(C(=O)NCCN2CCCCC2C)C1 (stereo not drawn) > 76.9 µM
CC(C)NS(=O)(=O)c1ccc(CCC(=O)N2CCOCC2)cc1 > 76.9 µM
COC(=O)c1[nH]c2cc(OC)ccc2c1N > 76.9 µM
CN1CCN(CCCNC(=O)c2cc3c(=O)oc4ccccc4c3s2)CC1 > 76.9 µM
O=C(NCCNC(=O)C(c1ccccc1)c1ccccc1)c1ccco1 > 76.9 µM
O=C(Cn1nnc(-c2ccccc2Cl)n1)N1CCN(S(=O)(=O)c2ccc(Cl)cc2)CC1 > 76.9 µM
COc1nnc(OC)c2ccccc12 > 76.9 µM
CCCS(=O)(=O)N1CCN(C(=O)c2ccccc2F)CC1 > 76.9 µM
COc1ccc(CC(NC(C)=O)C(=O)NC2CCN(c3nc(C)cc(C)c3C#N)CC2)c(OC)c1 (stereo not drawn) > 76.9 µM
CN(C)c1ccc(/C=c2\sc3nc(-c4ccccc4)nn3c2=O)cc1 > 76.9 µM
CCOCCn1c(CN(Cc2ccccc2)Cc2ccccc2)nc2c1c(=O)[nH]c(=O)n2C > 76.9 µM
COc1cccc(OCCSc2nnc3sc4ccccc4n23)c1 > 76.9 µM
O=C(Nc1nc2c(s1)CCc1ccccc1-2)c1ccco1 > 76.9 µM
COc1ccccc1CN1CC(C(=O)NCc2cccnc2)CC1=O (stereo not drawn) > 76.9 µM
COc1ccc(CC(=O)Nc2ccc3c(c2)CCC3)cc1S(=O)(=O)N1CCOCC1 > 76.9 µM
CCOc1ccc(N2C(=O)c3cccnc3C2Nc2ccc(C)cc2)cc1 (stereo not drawn) > 76.9 µM
CCS(=O)(=O)N1CCN(C2CCC(C)CC2)CC1 (stereo not drawn) > 76.9 µM
O=C(c1ccc2c(c1)OCO2)N1CCN(c2ccc(F)cc2)CC1 > 76.9 µM
CC(=O)NCCc1cc2cc(C)c(C)cc2[nH]c1=O > 76.9 µM
C=CCOC(=O)CCC(=O)Nc1cc(OC)nc(OC)n1 > 76.9 µM
CCCC(C(=O)c1ccccc1)n1cncn1 (stereo not drawn) > 76.9 µM
CCOC(=O)c1c(C)[nH]c(C(=O)COc2ccc3c(c2)OCO3)c1C > 76.9 µM
CC1(C)NC(=O)N(CC(O)CNC23CC4CC(CC(C4)C2)C3)C1=O (stereo not drawn) > 76.9 µM
O=C(C1CCCN(S(=O)(=O)c2ccc(F)cc2)C1)N1CCCC1 (stereo not drawn) > 76.9 µM
O=C(NC1CCCC1)c1ccc2nc(-c3ccco3)c(-c3ccco3)nc2c1 > 76.9 µM
CCOc1ccc(C(=O)NC2CCN(C(=O)NCc3ccccc3)CC2)cc1 > 76.9 µM
Cc1nc2c(n1O)CCC/C2=N\O > 76.9 µM
Nc1sccc1C(=O)c1ccc(Cl)cc1 > 76.9 µM
Cc1ccc(Cn2c(NC(=O)c3ccco3)nc3ccccc32)cc1 > 76.9 µM
Cc1cccc(NC(=O)c2cc(NC(=O)C3CCCCC3C(=O)O)ccc2Cl)n1 (stereo not drawn) > 76.9 µM
CCCNc1nc2c(c(=O)[nH]c(=O)n2C)n1CCC(C)C > 76.9 µM
COc1nonc1NC(=O)CSc1nc2ccccc2[nH]1 > 76.9 µM
CCOC(=O)C1[C@H]2C(=O)N(CCCOC)C[C@]23C=C[C@H]1O3 (stereo partly drawn) > 76.9 µM
O=S1(=O)C=CC(Nc2cccc(Cl)c2)C1 (stereo not drawn) > 76.9 µM
O=C(O)CCCCCNC(=O)CCn1cnc2ccccc2c1=O > 76.9 µM
C=C(C)c1nc(N)nc(N)n1 > 76.9 µM
CNc1nc(Oc2ccccc2C(=O)OC)nc(SC)n1 > 76.9 µM
CCOc1ccc(NC(=O)N2CC=C(n3c(=O)[nH]c4ccccc43)CC2)cc1 > 76.9 µM
CCc1nc(CNC(=O)c2cc(OC)c(OC)c(OC)c2)no1 > 76.9 µM
O=S(=O)(NCC1CCN(S(=O)(=O)c2ccccc2)CC1)c1ccccc1 > 76.9 µM
CC1CCN(C(=O)Cn2c(=O)oc3ccccc32)CC1 > 76.9 µM
CCOC(=O)c1ccc(-n2c(-c3ccco3)nc3ccccc3c2=O)cc1 > 76.9 µM
COc1ccc(-c2cc(C(=O)N3CC4(C)CC3CC(C)(C)C4)no2)cc1 (stereo not drawn) > 76.9 µM
CCOC(=O)N1CCN(C(=O)C2CCN(S(=O)(=O)c3ccc(Br)s3)CC2)CC1 > 76.9 µM
CCC(=O)c1ccc(OCC(O)Cn2cnc3ccccc32)cc1 (stereo not drawn)
CC(C)=C(NC(=O)c1ccco1)C(=O)NCCc1nc2ccccc2[nH]1 > 76.9 µM
CCOC(=O)c1cnn(-c2sc(C(=O)OCC)c(C)c2C(=O)OCC)c1N > 76.9 µM
Cc1cccc2cc(CN(Cc3ccc4c(c3)OCO4)Cc3nnnn3C3CCCC3)c(=O)[nH]c12 > 76.9 µM
CC(=O)Nc1ccc(S(=O)(=O)NCC2CCC(C(=O)NCCCN3CCCC3=O)CC2)cc1 (stereo not drawn) > 76.9 µM
O=C(O)c1ccccc1C(=O)c1cccs1 > 76.9 µM
CCOc1nc(-c2ccc(OC)cc2)ccc1-c1noc(-c2ccncc2)n1 > 76.9 µM
CCN(CC(N)=O)S(=O)(=O)c1ccc(Br)cc1 > 76.9 µM
COC(=O)C1=C(N)Oc2cc(C)n(C)c(=O)c2C1c1ccc(Cl)cc1 (stereo not drawn) > 76.9 µM
NC(=O)COc1ccc(C2c3c(oc4ccccc4c3=O)C(=O)N2CC2CCCO2)cc1 (stereo not drawn) > 76.9 µM
CCn1c(CSc2ncccn2)nnc1SCC(=O)N1c2ccccc2CC1C (stereo not drawn) > 76.9 µM
CCS(=O)(=O)n1nc(-c2ccccc2)nc1N > 76.9 µM
CCOC(=O)C1=C(C)NC(C)=C(C(=O)OCC)C1C(=O)OCC(=O)N1CCc2ccccc2C1 > 76.9 µM
O=C(CSc1nnnn1-c1ccc2c(c1)OCO2)NCc1cccs1 > 76.9 µM
CCc1nnc(NC(=O)CSc2nnc(-c3cccnc3)n2CCc2ccccc2)s1 > 76.9 µM
Cc1cc(C)cc(NC(=O)C2CCCC2)c1 > 76.9 µM
Cc1ccc(S(=O)(=O)N2CCN(S(=O)(=O)c3ccc4c(c3)OCCO4)CC2)cc1 > 76.9 µM
Cc1cc(OC(=O)CNC(=O)OC(C)(C)C)c2c(C)cc(=O)oc2c1 > 76.9 µM
CC(C)CNS(=O)(=O)c1ccc(CCC(=O)NCC2CCCO2)cc1 (stereo not drawn) > 76.9 µM
CCOC(=O)c1cnn2c(C)cc(-c3ccccc3)nc12 > 76.9 µM
COc1cccc(-c2cnc(NCc3cc(Cl)ccc3O)n2C)c1
NS(=O)(=O)c1ccc(-n2nncc2C23CC4CC(CC(C4)C2)C3)cc1 > 76.9 µM
Cn1c(C(=O)O)c(CC(=O)NCc2cccnc2)c2ccccc21 > 76.9 µM
CC(C)Cn1nc(NS(=O)(=O)c2ccccc2)c2cc3ccccc3nc21 > 76.9 µM
COc1ccc(CNC(=O)Nc2ccc(C)cc2)cc1 > 76.9 µM
COC(=O)CN1C(=O)C2(OCCCO2)c2ccccc21 > 76.9 µM
CN1CC(=O)N(CC(=O)Nc2ccc(F)cc2)c2ccccc2C1=O > 76.9 µM
O=C(CSc1nnc(-c2cccnc2)o1)Nc1ccccn1 > 76.9 µM
O=C(Cn1ncc2c(=O)oc3ccccc3c21)N1CCN(c2ccccn2)CC1 > 76.9 µM
O=C(Nc1ccc(Oc2ccc(Cl)cc2)cc1)c1ncn[nH]1 > 76.9 µM
COc1cc(NC(=O)c2ccc(Br)o2)ccc1NC(=O)C(C)C > 76.9 µM
Cc1nc(S(=O)(=O)N2CCOCC2)c(C#N)c(C)c1Cl > 76.9 µM
COc1ccc(-c2nnc(SCC#N)o2)cc1 > 76.9 µM
CCCc1cc(=O)oc2cc(OCC(=O)Nc3cc(C)on3)ccc12 > 76.9 µM
O=C(O)C1CCCCC1C(=O)NCCc1c[nH]c2ccccc12 (stereo not drawn) > 76.9 µM
CC(=O)c1ccc(NC(=O)CCn2c(=O)oc3ccccc32)cc1 > 76.9 µM
CCOc1ccc(N2C(=O)CC(Sc3nccc(C)n3)C2=O)cc1 (stereo not drawn) > 76.9 µM
Cc1ccc(C)c(OCCCC(=O)Nc2ccc(N3CCOCC3)cc2)c1 > 76.9 µM
CCOCCOCN(C#N)c1nc(OC)nc(N(C)C)n1 > 76.9 µM
CC(C(=O)NC1=NCCS1)(C(F)(F)F)C(F)(F)F > 76.9 µM
COc1ccccc1NC(=O)CSc1nnc(C2CCCCC2)n1C > 76.9 µM
